These results are taken from the supplement of paper PMC11417369.

The list shows a part of the results.

The subject of the assay is PfHDP1 homeodomain (GST-tagged). As to the kind of experiment: gcPBM binding intensity (ln(normalized median fluorescence intensity)); higher = stronger DNA binding. In outline:
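Using an Agilent 4 × 180k array, primer-extended double-stranded 36-bp intergenic genomic probes and negative controls were exposed for 1 h to GST-fused P. falciparum DNA-binding domains expressed in E. coli. Binding was carried out in 1× PBS with 1% milk, 0.2 mg/ml BSA, 0.5% salmon testes DNA and 0.03% Triton X-100, and protein was detected with Alexa488 anti-GST antibody and a 488 nm scan. Binding intensity is the highest Masliner-normalised natural-log median intensity across replicate spots of either probe orientation.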
With “ATTACAACATTTTATACACACGTGATTATTAATTTT [CACACA_site5581]”, the “gcPBM binding intensity (ln)” value was determined as 6.82.

“TTCAATATACATATGTGTACTAAAATAAATAGAAAA [XGTACX_site5708]”: the “gcPBM binding intensity (ln)” value came out at 6.8.

For the sequence “GGATTCAAAAAAAAAAATAAAAGTAAATAATAAATA [TGCATGCA_negctrl_site348]”, the “gcPBM binding intensity (ln)” value was 6.18.

Take “TAAATATATTTATACACACACACCAAAGCAATAGAT [CACACA_site7393]”: the “gcPBM binding intensity (ln)” value worked out at 7.23.

Consider “TATATTTCAGGGGGGAGTACAAATTTTTTTATATAA [XGTACX_site1600]”, for which the “gcPBM binding intensity (ln)” value came out at 9.22.

With “AAGAACAGAACGTACACACACATATTTATATTTATA [CACACA_site7594]”, the “gcPBM binding intensity (ln)” value is 6.65.

As to “TTTATGAAGTAAAAATATAAATTCACAAAGTTAAAA [CACACA_negctrl_site1476]”, the “gcPBM binding intensity (ln)” value was 6.

Turning to “TATGTATATTCTTTCAGTACACATAATGTTGTCATA [XGTACX_site8845]”, the “gcPBM binding intensity (ln)” value was 6.65.

In the case of “TTAATATATATATATATATATATATTTTTATTTTTT [CACACA_negctrl_site763]”, the “gcPBM binding intensity (ln)” value was 6.81.

With “TGTATTAACAAAAAGGTGCGGATATATATAAAAAAT [GTGCAC_site9473]”, the “gcPBM binding intensity (ln)” value came out at 7.59.

Take “AAAATGTTATTGGAAAGTACAAAAAAAATTATATAA [XGTACX_site4074]”: the “gcPBM binding intensity (ln)” value is 6.47.

Turning to “CATATATAGATATATACACACATATATAAATAAATA [CACACA_site6759]”, the “gcPBM binding intensity (ln)” value came out at 6.62.

Regarding “ATAAAACGTACAATGGTGCATATAAATAATATATAT [GTGCAC_site9960]”, the “gcPBM binding intensity (ln)” value worked out at 10.3.

On to “AAAAAATATTTTTACAGTACATATATATAAAATGTT [XGTACX_site3215]”, for which the “gcPBM binding intensity (ln)” value turned out to be 6.5.

Take “TCATTTCACGGACACACACACACAATATATTTCCTT [CACACA_site6023]”: the “gcPBM binding intensity (ln)” value came to 7.05.

As for “TAACAAAGGAAAGATATACACACGTATGCATGATAA [CACACA_site2520]”, the “gcPBM binding intensity (ln)” value came to 8.09.

Take “CATTAATATATATATACATGCACGTTTTAAAAAAAA [TGCATGCA_site875]”: the “gcPBM binding intensity (ln)” value was 9.59.

As for “ATGGGAATATAATTATGTACATATAAAAATTATAAA [XGTACX_site5336]”, the “gcPBM binding intensity (ln)” value came to 6.38.

As for “TAATTATGCAGACACACACACACACGCAACTAAAAA [CACACA_site7253]”, the “gcPBM binding intensity (ln)” value was 7.07.

As to “TAAAAAATATAAACTGCACACACAAAAAAAAAAGAG [CACACA_site8379]”, the “gcPBM binding intensity (ln)” value was determined as 7.66.

In the case of “AATTTAAAATAATATTGTACTTAGATATAAATATGA [XGTACX_site4198]”, the “gcPBM binding intensity (ln)” value was 6.11.

As to “TAATATCTAAAAAATATATTTTTTATTTTTTATTAA [CACACA_negctrl_site510]”, the “gcPBM binding intensity (ln)” value worked out at 6.15.

As for “ATATCATTAAAAGGATGTACATATGTGTATACAATA [XGTACX_site871]”, the “gcPBM binding intensity (ln)” value stood at 7.36.

On to “TACATACATACATACACACACACATATATATACATA [CACACA_site853]”, for which the “gcPBM binding intensity (ln)” value stood at 7.59.

For “ATGGTACACAAATATACATGCAATAATAAAAAAAAA [TGCATGCA_site879]”, the “gcPBM binding intensity (ln)” value stood at 6.71.

Turning to “TGCAGTCTGGAGAAAAGTACATAGTATCTGGTAACC [XGTACX_site2019]”, the “gcPBM binding intensity (ln)” value is 6.09.

“ATATATATATATTTATGTACTTAATAATTTATTCAC [XGTACX_site7301]”: the “gcPBM binding intensity (ln)” value was determined as 8.53.

As for “TTTTTTTTTTAATTCGCACACTGTCTTCATACAATT [CACACA_site1379]”, the “gcPBM binding intensity (ln)” value stood at 7.06.

Regarding “TTTTTATTACATAATTAAAAAAAATAATAAAATAAA [XGTACX_negctrl_site249]”, the “gcPBM binding intensity (ln)” value stood at 6.03.

With “AAAATACATAAATGTTCACACATTAAAAAGCAGAAG [CACACA_site5346]”, the “gcPBM binding intensity (ln)” value worked out at 6.67.

On to “TATGTCAGATGAAAGGGTACATAATATAATATATTT [XGTACX_site8062]”, for which the “gcPBM binding intensity (ln)” value turned out to be 6.09.

“TTTATAAAGAAACACACACACATGTGAACATAAAAA [CACACA_site1908]”: the “gcPBM binding intensity (ln)” value is 6.86.

For the sequence “CACACCCACCAACACACACACACACCCACCCATATA [CACACA_site366]”, the “gcPBM binding intensity (ln)” value came out at 6.72.

For the sequence CATAACATAAAATAGGTGCACAAAAATTGTAATTGA, the “gcPBM binding intensity (ln)” value is 10.

In the case of “TTATAAATGAATAAATGTACAAAATATATATATATA [XGTACX_site8829]”, the “gcPBM binding intensity (ln)” value came out at 8.94.

“ATTTTTATTTGTTACGCATGCATAAAAGTGCATACT [TGCATGCA_site547]”: the “gcPBM binding intensity (ln)” value stood at 8.53.

With “TTCAGTGTATACATATGTACATATATATATATATAT [XGTACX_site1621]”, the “gcPBM binding intensity (ln)” value turned out to be 9.41.

On to “TTGTAATATATGTATTGTACGCATATAACAATTATT [XGTACX_site3652]”, for which the “gcPBM binding intensity (ln)” value was 6.32.

On to “GTGTAAATAAGGATATATAACAATCAACAAAACATA [CACACA_negctrl_site1759]”, for which the “gcPBM binding intensity (ln)” value worked out at 7.

As for “TGTATGAAATATATTACACACATATATAATATATAT [CACACA_site793]”, the “gcPBM binding intensity (ln)” value stood at 6.65.

For the sequence “ATACACAAAATTATTAAATCAATAAATATATGGTTT [CACACA_negctrl_site353]”, the “gcPBM binding intensity (ln)” value came out at 6.22.

Turning to “ATATTTTTCAAACATCGTACATTATGAGTTAAAATT [XGTACX_site584]”, the “gcPBM binding intensity (ln)” value came out at 6.29.

As for “AATAAATACACATACACACACGACGCTAGTATATGT [CACACA_site6627]”, the “gcPBM binding intensity (ln)” value was found to be 7.18.

Turning to “AGAATAAATATGTGGTGTTATAGTATTAATGTTAAT [TGCATGCA_negctrl_site62]”, the “gcPBM binding intensity (ln)” value turned out to be 6.32.

As for “ATAAATATACCAATCGGTACACATTTATACAAACAA [XGTACX_site7484]”, the “gcPBM binding intensity (ln)” value was found to be 6.71.

As for “GCTATAAATATAATCACACATAAATATATAATATAT [CACACA_site5144]”, the “gcPBM binding intensity (ln)” value worked out at 6.29.

Regarding “AGGAGGATAGTTCACAGTACCCAGGAAATCTGCGGA [XGTACX_site4928]”, the “gcPBM binding intensity (ln)” value worked out at 5.98.

Consider “TATGCAATAAAATATACACACAATATACTTATATAT [CACACA_site7691]”, for which the “gcPBM binding intensity (ln)” value is 6.84.

For “TTTATTTTCCAAAGGGTGCACATAGTTAAAACGATA [GTGCAC_site9855]”, the “gcPBM binding intensity (ln)” value was 9.64.

As for “TTAATTTTTTTTTAAACACACATTTTTTTATTTAAG [CACACA_site2738]”, the “gcPBM binding intensity (ln)” value is 6.25.

Turning to “TGAATAAAATATTATACACACATATGTATATAACAT [CACACA_site974]”, the “gcPBM binding intensity (ln)” value was found to be 6.45.

With “GTTATAAATAATAAATAAATAATCAAATGAAGAATG [CACACA_negctrl_site653]”, the “gcPBM binding intensity (ln)” value stood at 6.45.

For the sequence “TATTAATTTTTTTTTTTTTTTTTTTTTTTTTTTTTT [CACACA_negctrl_site1329]”, the “gcPBM binding intensity (ln)” value is 7.43.

Consider “TCCTTATTTCATATTTTTAAATAATACAAAAAAAAA [CACACA_negctrl_site773]”, for which the “gcPBM binding intensity (ln)” value was determined as 6.17.

For the sequence “GAATATTAAATATTATCACACACATAATTATTTCCA [CACACA_site8730]”, the “gcPBM binding intensity (ln)” value turned out to be 6.49.

As for “AAATAAAAAAAAGCCTGTACATGTTCATAAATTTTT [XGTACX_site7925]”, the “gcPBM binding intensity (ln)” value worked out at 6.37.
